# Laboratory results reported in paper PMC12529666.
# The list shows a part of the results, in another mix than the full data. At the low end of the ranking the order means little. Some of the results follow.
# How the values were obtained:
# [1] = molecular target: AGO2 WT (phosphosite mutant background) S387D + S824A + S828D + S831D + S834A (UniProt Q9UKV8); experiment: RNA Bind-n-Seq (nitrocellulose filter binding and sequencing); conditions: constant regions annealed to DNA blockers; guide miR-122 5' phosphate; 30 mM Tris pH 8.0, 100 mM potassium acetate, 2 mM magnesium acetate, 0.5 mM TCEP, 0.005% NP-40, 0.01 mg/ml yeast tRNA; 3 nM AGO2-miR-122, 100 nM RNA library …; high values mean tight binding
# [2] = molecular target: AGO2 F182del S387D + S824A + S828D + S831D + S834A + del182-182 (UniProt Q9UKV8); experiment: as above; conditions: constant regions annealed to DNA blockers; guide miR-122 5' phosphate; 30 mM Tris pH 8.0, 100 mM potassium acetate, 2 mM magnesium acetate, 0.5 mM TCEP, 0.005% NP-40, 0.01 mg/ml yeast tRNA; 3 nM AGO2-miR-122, 100 nM RNA library …; high values mean tight binding
sequence,measurement,setting,value
GAGUUCUACAGUCCGACGAUCCCAACAUGCUUCACACCUGGAAUUCUCGGGUGCCAA / UGGAGUGUGACAAUGGUGUUUG / GATCGTCGGACTGTAGAACTC / TTGGCACCCGAGAATTCCA,binding signal (fold enrichment over input),[1],0.135
same,binding signal (fold enrichment over input),[2],0.842
GAGUUCUACAGUCCGACGAUCCCAACGUGCUCUGCACCUGGAAUUCUCGGGUGCCAA / UGGAGUGUGACAAUGGUGUUUG / GATCGTCGGACTGTAGAACTC / TTGGCACCCGAGAATTCCA,binding signal (fold enrichment over input),[1],0.123
same,binding signal (fold enrichment over input),[2],0.0585
GAGUUCUACAGUCCGACGAUCCCAACGCACUUCACACCUGGAAUUCUCGGGUGCCAA / UGGAGUGUGACAAUGGUGUUUG / GATCGTCGGACTGTAGAACTC / TTGGCACCCGAGAATTCCA,binding signal (fold enrichment over input),[1],0.149
same,binding signal (fold enrichment over input),[2],0.82
GAGUUCUACAGUCCGACGAUCCCAACACGCUUUACACCUGGAAUUCUCGGGUGCCAA / UGGAGUGUGACAAUGGUGUUUG / GATCGTCGGACTGTAGAACTC / TTGGCACCCGAGAATTCCA,binding signal (fold enrichment over input),[1],0.104
same,binding signal (fold enrichment over input),[2],0.135
GAGUUCUACAGUCCGACGAUCCCAACGUAUCCUACACCUGGAAUUCUCGGGUGCCAA / UGGAGUGUGACAAUGGUGUUUG / GATCGTCGGACTGTAGAACTC / TTGGCACCCGAGAATTCCA,binding signal (fold enrichment over input),[1],0.109
same,binding signal (fold enrichment over input),[2],0.121
GAGUUCUACAGUCCGACGAUCCCAACAUACCUCGCACCUGGAAUUCUCGGGUGCCAA / UGGAGUGUGACAAUGGUGUUUG / GATCGTCGGACTGTAGAACTC / TTGGCACCCGAGAATTCCA,binding signal (fold enrichment over input),[1],0.0876
same,binding signal (fold enrichment over input),[2],0.0641
GAGUUCUACAGUCCGACGAUCCCAACGUGUUUCACACCUGGAAUUCUCGGGUGCCAA / UGGAGUGUGACAAUGGUGUUUG / GATCGTCGGACTGTAGAACTC / TTGGCACCCGAGAATTCCA,binding signal (fold enrichment over input),[1],0.11
same,binding signal (fold enrichment over input),[2],0.111
GAGUUCUACAGUCCGACGAUCCCAACAUACCCUACACCUGGAAUUCUCGGGUGCCAA / UGGAGUGUGACAAUGGUGUUUG / GATCGTCGGACTGTAGAACTC / TTGGCACCCGAGAATTCCA,binding signal (fold enrichment over input),[1],0.0939
same,binding signal (fold enrichment over input),[2],0.0571
GAGUUCUACAGUCCGACGAUCCCAACGUGCCCUACACCUGGAAUUCUCGGGUGCCAA / UGGAGUGUGACAAUGGUGUUUG / GATCGTCGGACTGTAGAACTC / TTGGCACCCGAGAATTCCA,binding signal (fold enrichment over input),[1],0.114
same,binding signal (fold enrichment over input),[2],0.0533
GAGUUCUACAGUCCGACGAUCCCAACGUGCCUUGCACCUGGAAUUCUCGGGUGCCAA / UGGAGUGUGACAAUGGUGUUUG / GATCGTCGGACTGTAGAACTC / TTGGCACCCGAGAATTCCA,binding signal (fold enrichment over input),[1],0.104
same,binding signal (fold enrichment over input),[2],0.0442
GAGUUCUACAGUCCGACGAUCCCAACGCAUCUUGCACCUGGAAUUCUCGGGUGCCAA / UGGAGUGUGACAAUGGUGUUUG / GATCGTCGGACTGTAGAACTC / TTGGCACCCGAGAATTCCA,binding signal (fold enrichment over input),[1],0.0852
same,binding signal (fold enrichment over input),[2],0.0355
GAGUUCUACAGUCCGACGAUCCCAACGCACCUUGCACCUGGAAUUCUCGGGUGCCAA / UGGAGUGUGACAAUGGUGUUUG / GATCGTCGGACTGTAGAACTC / TTGGCACCCGAGAATTCCA,binding signal (fold enrichment over input),[1],0.0871
same,binding signal (fold enrichment over input),[2],0.0817
GAGUUCUACAGUCCGACGAUCCCAACACAUCUUACACCUGGAAUUCUCGGGUGCCAA / UGGAGUGUGACAAUGGUGUUUG / GATCGTCGGACTGTAGAACTC / TTGGCACCCGAGAATTCCA,binding signal (fold enrichment over input),[1],0.114
same,binding signal (fold enrichment over input),[2],0.33
GAGUUCUACAGUCCGACGAUCCCAACACGCUCUGCACCUGGAAUUCUCGGGUGCCAA / UGGAGUGUGACAAUGGUGUUUG / GATCGTCGGACTGTAGAACTC / TTGGCACCCGAGAATTCCA,binding signal (fold enrichment over input),[1],0.132
same,binding signal (fold enrichment over input),[2],0.149
GAGUUCUACAGUCCGACGAUCCCAACGUAUCCUGCACCUGGAAUUCUCGGGUGCCAA / UGGAGUGUGACAAUGGUGUUUG / GATCGTCGGACTGTAGAACTC / TTGGCACCCGAGAATTCCA,binding signal (fold enrichment over input),[1],0.0891
same,binding signal (fold enrichment over input),[2],0.0452
GAGUUCUACAGUCCGACGAUCCCAACGCGCUUUGCACCUGGAAUUCUCGGGUGCCAA / UGGAGUGUGACAAUGGUGUUUG / GATCGTCGGACTGTAGAACTC / TTGGCACCCGAGAATTCCA,binding signal (fold enrichment over input),[1],0.0851
same,binding signal (fold enrichment over input),[2],0.031
GAGUUCUACAGUCCGACGAUCCCAACAUACUUUGCACCUGGAAUUCUCGGGUGCCAA / UGGAGUGUGACAAUGGUGUUUG / GATCGTCGGACTGTAGAACTC / TTGGCACCCGAGAATTCCA,binding signal (fold enrichment over input),[1],0.0951
same,binding signal (fold enrichment over input),[2],0.0589
GAGUUCUACAGUCCGACGAUCCCAACAUAUCUCACACCUGGAAUUCUCGGGUGCCAA / UGGAGUGUGACAAUGGUGUUUG / GATCGTCGGACTGTAGAACTC / TTGGCACCCGAGAATTCCA,binding signal (fold enrichment over input),[1],0.165
same,binding signal (fold enrichment over input),[2],1.42
GAGUUCUACAGUCCGACGAUCCCAACACGCCUUACACCUGGAAUUCUCGGGUGCCAA / UGGAGUGUGACAAUGGUGUUUG / GATCGTCGGACTGTAGAACTC / TTGGCACCCGAGAATTCCA,binding signal (fold enrichment over input),[1],0.118
same,binding signal (fold enrichment over input),[2],0.246
